# Source: the supplement of paper PMC8728848
# This is one part of the list.
# B1: Cohesin-hLangerin (Homo sapiens) (protein)
# chain: LDDLDAVRIKVDTVNAKPGDTVRIPVRFSGIPSKGIANCDFVYSYDPNVLEIIEIEPGDIIVDPNPDKSFDTAVYPDRKIIVFLFAEDSGTGAYAITKDGVFATIVAKVKEGAPNGLSVIKFVEVGGFANNDLVEQKTQFFDGGANVGDTTEPATPTTPVTTPTTTDDLDAASYPRFMGTISDVKTNVQLLKGRVDNISTLDSEIKKNSDGMEAAGVQIQMVNESLGYVRSQFLKLKTSVEKANAQIQILTRSWEEVSTLNAQIPELKSDLEKASALNTKIRALQGSLENMSKLLKRQNDILQVVSQGWKYFKGNFYYFSLIPKTWYSAEQFCVSRNSHLTSVTSESEQEFLYKTAGGLIYWIGLTKAGMEGDWSWVDDTPFNKVQSARFWIPGEPNNAGNNEHCGNIKAPSLQAWNDAPCDKTFLFICKRPYVPSEPHHHHHH
# Legend:
# Test in all cases: glycan array binding signal (z-score within array); higher = stronger binding
# Details in all cases: glycan notation: IUPAC condensed, linker removed
# [1] = target: Neu5Ac(a2-3)Gal(b1-4)GlcNAc(b1-3)Gal(b1-4)GlcNAc(b1-3)Gal(b1-4)GlcNAc
# Method in brief: (§1)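 The Consortium for Functional Glycomics database supplied 3228 glycan arrays, of which those lacking an available protein sequence were dropped. The binding signal, a within-array Z-score, was averaged across arrays of the same protein sequence and across linkers. Negative scores can be read as non-binding.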
# [2] = target: Neu5Ac(a2-3)Gal(b1-4)GlcNAc(b1-3)Gal(b1-4)GlcNAc(b1-3)Gal(b1-4)GlcNAc(b1-2)Man(a1-3)[Neu5Ac(a2-3)Gal(b1-4)GlcNAc(b1-3)Gal(b1-4)GlcNAc(b1-3)Gal(b1-4)GlcNAc(b1-2)Man(a1-6)]GalNAc
# Method in brief: as §1
# [3] = target: Neu5Ac(a2-3)Gal(b1-4)GlcNAc(b1-3)Gal(b1-4)GlcNAc(b1-3)GalNAc
# Method in brief: as §1
# [4] = target: Neu5Ac(a2-3)Gal(b1-4)GlcNAc(b1-3)Gal(b1-4)GlcNAc(b1-3)[Neu5Ac(a2-3)Gal(b1-4)GlcNAc(b1-3)Gal(b1-4)GlcNAc(b1-6)]GalNAc
# Method in brief: as §1
# [5] = target: Neu5Ac(a2-3)Gal(b1-4)GlcNAc(b1-3)Gal(b1-4)GlcNAc(b1-6)[Gal(b1-3)]GalNAc
# Method in brief: as §1
# [6] = target: Neu5Ac(a2-3)Gal(b1-4)GlcNAc(b1-3)Gal(b1-4)[Fuc(a1-3)]GlcNAc
# Method in brief: as §1
# [7] = target: Neu5Ac(a2-3)Gal(b1-4)GlcNAc(b1-3)GalNAc
# Method in brief: as §1
# [8] = target: Neu5Ac(a2-3)Gal(b1-4)GlcNAc(b1-3)[Neu5Ac(a2-3)Gal(b1-4)GlcNAc(b1-6)]GalNAc
# Method in brief: as §1
# [9] = target: Neu5Ac(a2-3)Gal(b1-4)GlcNAc(b1-6)GalNAc
# Method in brief: as §1
# [10] = target: Neu5Ac(a2-3)Gal(b1-4)GlcNAc(b1-6)[Gal(b1-3)]GalNAc
# Method in brief: as §1
# [11] = target: Neu5Ac(a2-3)Gal(b1-4)GlcNAc(b1-6)[Neu5Ac(a2-3)Gal(b1-3)]GalNAc
# Method in brief: as §1
# [12] = target: Neu5Ac(a2-3)Gal(b1-4)GlcNAc6S
# Method in brief: as §1
# [13] = target: Neu5Ac(a2-3)Gal(b1-4)[Fuc(a1-3)]GlcNAc
# Method in brief: as §1
# [14] = target: Neu5Ac(a2-3)Gal(b1-4)[Fuc(a1-3)]GlcNAc(b1-2)Man
# Method in brief: as §1
# [15] = target: Neu5Ac(a2-3)Gal(b1-4)[Fuc(a1-3)]GlcNAc(b1-3)Gal
# Method in brief: as §1
# [16] = target: Neu5Ac(a2-3)Gal(b1-4)[Fuc(a1-3)]GlcNAc(b1-3)Gal(b1-4)GlcNAc
# Method in brief: as §1
# [17] = target: Neu5Ac(a2-3)Gal(b1-4)[Fuc(a1-3)]GlcNAc(b1-3)Gal(b1-4)[Fuc(a1-3)]GlcNAc(b1-3)Gal(b1-4)[Fuc(a1-3)]GlcNAc
# Method in brief: as §1
# [18] = target: Neu5Ac(a2-3)Gal(b1-4)[Fuc(a1-3)]GlcNAc(b1-3)GalNAc
# Method in brief: as §1
# [19] = target: Neu5Ac(a2-3)Gal(b1-4)[Fuc(a1-3)]GlcNAc(b1-6)[Gal(b1-3)]GalNAc
# Method in brief: as §1
# [20] = target: Neu5Ac(a2-3)Gal(b1-4)[Fuc(a1-3)]GlcNAc(b1-6)[Neu5Ac(a2-3)Gal(b1-3)]GalNAc
# Method in brief: as §1
# [21] = target: Neu5Ac(a2-3)Gal(b1-4)[Fuc(a1-3)]GlcNAc6S
# Method in brief: as §1
# [22] = target: Neu5Ac(a2-3)Gal6S(b1-4)GlcNAc
# Method in brief: as §1
# [23] = target: Neu5Ac(a2-3)Gal6S(b1-4)[Fuc(a1-3)]GlcNAc
# Method in brief: as §1
# Neu5Ac(a2-3)GalNAc = target: Neu5Ac(a2-3)GalNAc
# Method in brief: as §1
# [24] = target: Neu5Ac(a2-3)GalNAc(b1-4)GlcNAc
# Method in brief: as §1
# [25] = target: Neu5Ac(a2-3)[GalNAc(b1-4)]Gal(b1-4)Glc
# Method in brief: as §1
# [26] = target: Neu5Ac(a2-3)[GalNAc(b1-4)]Gal(b1-4)GlcNAc
# Method in brief: as §1
# [27] = target: Neu5Ac(a2-3)[GalNAc(b1-4)]Gal(b1-4)GlcNAc(b1-3)GalNAc
# Method in brief: as §1
# [28] = target: Neu5Ac(a2-3)[Neu5Ac(a2-6)]GalNAc
# Method in brief: as §1
# Neu5Ac(a2-6)Gal = target: Neu5Ac(a2-6)Gal
# Method in brief: as §1
# [29] = target: Neu5Ac(a2-6)Gal(b1-3)GlcNAc(b1-3)[Gal(b1-4)GlcNAc(b1-6)]Gal(b1-4)Glc
# Method in brief: as §1
# Neu5Ac(a2-6)Gal(b1-4)Glc = target: Neu5Ac(a2-6)Gal(b1-4)Glc
# Method in brief: as §1
# [30] = target: Neu5Ac(a2-6)Gal(b1-4)GlcNAc
# Method in brief: as §1
# [31] = target: Neu5Ac(a2-6)Gal(b1-4)GlcNAc(b1-2)Man
# Method in brief: as §1
# [32] = target: Neu5Ac(a2-6)Gal(b1-4)GlcNAc(b1-2)Man(a1-3)Man(b1-4)GlcNAc(b1-4)GlcNAc
# Method in brief: as §1
# [33] = target: Neu5Ac(a2-6)Gal(b1-4)GlcNAc(b1-2)Man(a1-3)[Gal(b1-4)GlcNAc(b1-2)Man(a1-6)]Man(b1-4)GlcNAc(b1-4)GlcNAc
# Method in brief: as §1
# [34] = target: Neu5Ac(a2-6)Gal(b1-4)GlcNAc(b1-2)Man(a1-3)[GlcNAc(b1-2)Man(a1-6)]Man(b1-4)GlcNAc(b1-4)GlcNAc
# Method in brief: as §1
# [35] = target: Neu5Ac(a2-6)Gal(b1-4)GlcNAc(b1-2)Man(a1-3)[GlcNAc(b1-4)][Neu5Ac(a2-6)Gal(b1-4)GlcNAc(b1-2)Man(a1-6)]Man(b1-4)GlcNAc(b1-4)GlcNAc
# Method in brief: as §1
binder,measurement,setting,value
B1,glycan array binding signal (z-score),[1],-0.419
same,glycan array binding signal (z-score),[2],0.442
same,glycan array binding signal (z-score),[3],-0.271
same,glycan array binding signal (z-score),[4],-0.325
same,glycan array binding signal (z-score),[5],-0.387
same,glycan array binding signal (z-score),[6],-0.425
same,glycan array binding signal (z-score),[7],-0.278
same,glycan array binding signal (z-score),[8],-0.381
same,glycan array binding signal (z-score),[9],-0.26
same,glycan array binding signal (z-score),[10],-0.112
same,glycan array binding signal (z-score),[11],-0.435
same,glycan array binding signal (z-score),[12],-0.432
same,glycan array binding signal (z-score),[13],-0.361
same,glycan array binding signal (z-score),[14],-0.412
same,glycan array binding signal (z-score),[15],-0.421
same,glycan array binding signal (z-score),[16],-0.217
same,glycan array binding signal (z-score),[17],-0.186
same,glycan array binding signal (z-score),[18],0.356
same,glycan array binding signal (z-score),[19],-0.444
same,glycan array binding signal (z-score),[20],-0.312
same,glycan array binding signal (z-score),[21],-0.42
same,glycan array binding signal (z-score),[22],2.21
same,glycan array binding signal (z-score),[23],3.69
same,glycan array binding signal (z-score),Neu5Ac(a2-3)GalNAc,-0.414
same,glycan array binding signal (z-score),[24],-0.426
same,glycan array binding signal (z-score),[25],-0.41
same,glycan array binding signal (z-score),[26],-0.366
same,glycan array binding signal (z-score),[27],-0.379
same,glycan array binding signal (z-score),[28],-0.386
same,glycan array binding signal (z-score),Neu5Ac(a2-6)Gal,-0.428
same,glycan array binding signal (z-score),[29],-0.442
same,glycan array binding signal (z-score),Neu5Ac(a2-6)Gal(b1-4)Glc,-0.412
same,glycan array binding signal (z-score),[30],-0.428
same,glycan array binding signal (z-score),[31],-0.273
same,glycan array binding signal (z-score),[32],-0.43
same,glycan array binding signal (z-score),[33],-0.438
same,glycan array binding signal (z-score),[34],-0.441
same,glycan array binding signal (z-score),[35],-0.444
